Results published in PubChem BioAssay AID651820 (National Center for Advancing Translational Sciences (NCATS), 2012).
In all, about 340,000 compounds went through this assay and about 12,000 (3.5%) were called active. The shares of active, inactive and inconclusive entries below differ from those in the screen. Calls come from the whole dose curve; as a rule, active = well fitted inhibition curve with a large enough effect; inconclusive = small, poorly fitted or top-dose-only effect, or another doubt; inactive = no such curve, though single readings can be large or run the other way. No potency is given beside an inconclusive call; the fits are too rough.
% is set by controls: 0 for no effect and ±100 for the full control effect; potency is the fitted concentration of half-maximal effect; tags give direction and shape of the fitted curve.

Experiment: qHTS Assay for Inhibitors of Hepatitis C Virus (HCV)
Details: Huh7.5.1 HCVcc-Cre (HCVcc is cell-culture hepatitis C virus) infection, luciferase reporter, 44 h; activity change, negative = inhibition: at 41.8 µM (top of the series) unless noted
Outline: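 1,000 cells/well; 4 h culture; + compound; + HCVcc-Cre (~0.5 moi); 44 h; luciferase substrate, RT 15 min; read 15 sec.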
With `Cc1c(C(=O)N2CCOCC2)[nH]c2ccc(OCc3ccccc3)cc12` the Potency was inconclusive [inhibitor, single point]. With `CN(CC(=O)Nc1cccc(F)c1)CC(=O)Nc1ccccc1-c1ccccc1` the Potency was inconclusive [inhibitor, single point]. For `CN(C)CC#CCC(O)(c1ccccc1)C1CCCC1` (centres undefined), the Potency was inconclusive [inhibitor, single point]. With `Cn1c(=O)c2c(nc(SCc3ccccc3)n2Cc2ccc(Cl)cc2)n(C)c1=O` the Potency was inconclusive [inhibitor, full curve, poor fit]. For `CCOC(=O)N1CCN(C(=O)c2cc(COc3ccc4ncccc4c3)on2)CC1`, the Potency was active: 7.94 µM. With `CCc1nnc(NC(=O)c2ccc(Cl)c(S(=O)(=O)N3CCc4ccccc4C3)c2)s1` the Potency was inconclusive [inhibitor, single point]. For `Cc1ccc(-c2cn(-c3ccc(SC(F)F)cc3)c3[n+]2CCC3)cc1`, the Potency was inconclusive [inhibitor, partial curve, poor fit]. For `COc1ccc(NC(=O)c2cc3c(=O)n(C)c4ccccc4c3n2C)cc1OC`, the Potency was inconclusive [inhibitor, partial curve]. For `COCCNc1nc2c(c(=O)n(Cc3cccc(Br)c3)c(=O)n2C)n1C`, the Potency was “inactive”. In the case of `O=C(CSC(=S)N1CCCC1)N1CCN(S(=O)(=O)c2ccccc2F)CC1`, the Potency is reported as inconclusive [inhibitor, single point]. With `COc1cccc(/C=N/Nc2ccnc(=O)[nH]2)c1O` the Potency was active: 2.24 µM. In the case of `CN1CCC(=C(c2ccc(Cl)cc2)c2ccccn2)CC1`, the Potency is reported as inconclusive [inhibitor, partial curve]. In the case of `O=C(CCN1C(=O)c2cccc3cccc(c23)C1=O)Nc1ccccc1`, the Potency is reported as inconclusive [inhibitor, partial curve]. For `O=C(/C=C/c1ccco1)Nc1nc(-c2ccccc2)cs1`, the Potency was inconclusive [inhibitor, partial curve]. In the case of `CN(CCC1CCOCC1)C(=O)C1CCC(=O)N(CCc2ccc(Cl)cc2)C1` (centres undefined), the Potency is reported as “inactive”. With `C=C1C(=O)O[C@H]2[C@H]1[C@H](OC(=O)CC(=O)O[C@@H]1C[C@@H](C)[C@@H]3C=CC(=O)[C@@]3(C)[C@H]3OC(=O)C(=C)[C@H]13)C[C@@H](C)[C@H]1C=CC(=O)[C@]12C` the Potency was inconclusive [inhibitor, single point]. With `O=C(COC(=O)Cc1cccc(C(F)(F)F)c1)Nc1ccc2[nH]c(=O)[nH]c2c1` the Potency was “inactive”. In the case of `CN(C)CCCNc1ncnc2scc(-c3ccccc3)c12`, the Potency is reported as inconclusive [inhibitor, partial curve, poor fit]. For `CC(=O)Nc1cccc(NC(=O)c2c(-c3ccccc3Cl)noc2C)c1`, the Potency was inconclusive [inhibitor, partial curve]. In the case of `CSc1ccccc1NC(=O)COC(=O)c1cnc(C)cn1`, the Potency is reported as “inactive”. In the case of `Cc1ccc2cc(C)c(SCC#N)nc2c1`, the Potency is reported as inconclusive [inhibitor, partial curve]. In the case of `Fc1ccccc1N1CCN(c2nc(-c3cccs3)nc3ccccc23)CC1`, the Potency is reported as inconclusive [inhibitor, full curve, poor fit]. For `COc1ccc(C(=O)Cc2ccc(OC)c(OC)c2)c(OC)c1`, the Potency was inconclusive [inhibitor, partial curve]. For `Cc1scc(C(=O)N/N=C/c2ccc(Cl)s2)c1C`, the Potency was “inactive”. With `CCC1=C2CC[C@H]3C(=O)N(CC)C(=O)[C@H]3[C@H]2[C@@]2(Cc3ccccc3)C(=NCCOC)OC(=O)N2C1=O` the activity change, negative = inhibition was inactive: 28.6% [at 8.37 µM]. For `CNc1nc(-c2ccc3c(c2)CCN3C(=O)c2ccc(F)cc2)cs1`, the Potency was inconclusive [inhibitor, single point]. For `Cc1occc1C(=O)N/N=C/C(Br)=C/c1ccccc1`, the Potency was inconclusive [inhibitor, partial curve]. With `N#CCC(=N)N1CCN(c2ccc(F)cc2)CC1` the Potency was inconclusive [inhibitor, single point]. For `COc1cc(-c2c(C#N)c(N)nc3c2CCCC3)cc(OC)c1OC`, the Potency was “inactive”. For `O=C(NCc1cccc(Cl)c1)c1ccncc1`, the Potency was “inactive”. In the case of `CC(=O)Cc1nsc(NC(=O)c2ccccc2)n1`, the Potency is reported as “inactive”. With `C/C(=N\Nc1ccc(S(=O)(=O)N2CCCCC2)cn1)c1cccc(Br)c1` the Potency was inconclusive [inhibitor, partial curve]. For `O=C(c1sc2cc(Cl)ccc2c1Cl)N1CCN(CCc2ccccn2)CC1`, the Potency was inconclusive [inhibitor, single point]. In the case of `COc1ccc(NC(=S)NCCc2ccc(Cl)cc2)c(OC)c1`, the Potency is reported as inconclusive [inhibitor, partial curve]. With `COc1ccc(C(=O)NCc2cccnc2)cc1Br` the Potency was “inactive”. For `CNC(=O)C1CC(=O)N(c2ccc(OCC(=O)Nc3ccccc3C)cc2)C1` (centres undefined), the Potency was “inactive”. For `O=C(Nc1ccc(CN2CCOCC2)cc1)c1ccc(N2CCCC2)c([N+](=O)[O-])c1`, the Potency was inconclusive [inhibitor, full curve]. In the case of `COc1cccc(CNS(=O)(=O)c2ccc(N3CCCC3=O)cc2)c1`, the Potency is reported as inconclusive [inhibitor, single point]. In the case of `O=C(NNC(=O)c1ccccc1Br)c1cccc(Cl)c1`, the Potency is reported as “inactive”. In the case of `COc1ccc(OC)c(/C(C)=N\NC(=O)c2cc3cc(Cl)ccc3n2C)c1`, the Potency is reported as inconclusive [inhibitor, partial curve]. In the case of `Cc1ccc(NS(=O)(=O)c2ccc(Cl)c(C(=O)Nc3ccccc3-c3nc4ccccc4[nH]3)c2)cc1C`, the Potency is reported as active: 3.55 µM. For `Cc1cc(C)n2c(SCc3c(C)noc3C)nnc2n1`, the Potency was inconclusive [inhibitor, single point]. With `Cc1ccc(/C=N\NC(=O)C2CC(=O)N(c3ccccc3)C2)o1` (centres undefined) the Potency was “inactive”. For `COc1ccc2[nH]c(=O)c(CN(Cc3cccs3)C(=S)Nc3cccc(C)c3)cc2c1`, the Potency was inconclusive [inhibitor, partial curve].
